Laboratory results published in PubChem BioAssay AID686979 (National Center for Advancing Translational Sciences (NCATS), 2013).
Among all 420,000 compounds or so, about 50,000 (12%) were called active. The shares of active, inactive and inconclusive entries below differ from those in the screen. Calls come from the whole dose curve; as a rule, active = well fitted inhibition curve with a large enough effect; inconclusive = small, poorly fitted or top-dose-only effect; inactive = flat fitted curve, though single readings scatter. No potency is given beside an inconclusive call; the fits are too rough.

Experiment: qHTS for Inhibitors of human tyrosyl-DNA phosphodiesterase 1 (TDP1): qHTS in cells in presence of CPT; note: nearly all actives have a fitted effect of over 55% in size
Details: chicken DT40 Tdp1-/-;hTDP1 cells + 20 nM CPT, ATP luminescence, 48 h; activity change, negative = growth inhibition: at 46.2 µM (top of the series) unless noted
Method in brief: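 Chicken DT40 Tdp1-/- cells complemented with human TDP1, 400 cells/well, exposed to compounds plus 20 nM camptothecin for at least 48 h at 37 C; viability read as ATP content by CellTiter-Glo luminescence.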
% is set by controls: 0 for no effect and ±100 for the full control effect; potency is the fitted concentration of half-maximal effect; tags give direction and shape of the fitted curve.

Row | Compound | Potency | activity change, negative = growth inhibition
1 | COC(=O)[C@H](CC(C)C)NS(=O)(=O)NC(=O)OC(C)(C)C | inactive | 
2 | Cc1ccc(N2C(=N)/C(=C3/Nc4ccccc4S3)C(c3ccccc3)C2=O)cc1 (stereo not drawn) | inconclusive [inhibitor, single point] | 
3 | COc1ccc(Cl)cc1C(=O)Nc1cccc(-c2ccc3nncn3n2)c1 | inconclusive [inhibitor, single point] | 
4 | O=C(c1cccc(NS(=O)(=O)c2ccc(F)c(F)c2)c1)N1CCCCC1 | inactive | 
5 | O=S(=O)(c1ccc(NC(=S)NCc2cccnc2)cc1)N1CCCCC1 | active: 8.2 µM | 
6 | CCCn1nc(NS(=O)(=O)c2cccc3nonc23)c2cc3cc(C)ccc3nc21 | inactive | 
7 | CN1OC[C@@H]2CN(C(=O)Nc3ccccc3)[C@H](c3ccc(N4CCCCC4)cc3)C[C@@H]21 | inconclusive [inhibitor, single point] | 
8 | NC(=O)CN1CCOCCN(CC(N)=O)CCOCC1 |  | inconclusive: -27.8% [inhibitor]
9 | COc1cc(OC)c(C(=O)N/N=C/c2ccoc2)cc1OC | inactive | 
10 | CC1(C)Cc2nc(NC3CCCCC3)c(C#N)cc2CO1 | inconclusive [inhibitor, single point] | 
11 | COc1cc(C)c(NC(=O)C2CCN(S(=O)(=O)c3cccs3)CC2)cc1OC | inactive | 
12 | Cc1ccc2ncc(C(=O)Nc3ccc(OC(F)(F)F)cc3)c(=O)n2c1 | inactive | 
13 | O=C(Nc1nc(-c2ccccn2)cs1)c1ccc([N+](=O)[O-])o1 | active: 4.11 µM | 
14 | Cc1cccc(C)c1NC(=O)c1ccc2sc([C@H]3C[C@H](O)[C@@H](CO)O3)nc2c1 | inconclusive [inhibitor, single point] | 
15 | C=CC(=O)Nc1ccc(CN2C(=O)N(c3c(Cl)c(OC)cc(OC)c3Cl)Cc3cnc(NCCCCN(CC)CC)nc32)cc1 | active: 11.6 µM | 
16 | COc1ccc2cc3c(N)nn(C(=O)c4ccc(OC)c(OC)c4)c3nc2c1 | inactive | 
17 | CN(Cc1ccc(Cl)c(Cl)c1)C(=O)CN1C(=O)NC2(CCCC2)C1=O | inactive | 
18 | [O-][n+]1c(/C=C/c2ccccc2)ccc2ccccc21 | active: 20.6 µM | 
19 | Cc1ccc(-c2cc(C(=O)NCc3ccccc3Cl)c3ccccc3n2)cc1C | active: 14.6 µM | 
20 | CC1CC(=O)N(CC(=O)Nc2cccc(Cl)c2)c2ccccc2S1(=O)=O (stereo not drawn) | inactive | 
21 | O=C(OCCCN1C(=O)c2ccccc2C1=O)c1ccco1 | inconclusive [inhibitor, single point] | 
22 | N=c1c2c(ncn1CCCO)Oc1c(ccc3ccccc13)C2c1ccccc1 (stereo not drawn) | inconclusive [inhibitor, single point] | 
23 | COCCCNC(=O)Cc1ccc(S(=O)(=O)N2CCOCC2)s1 | inactive | 
24 | COc1ccc(CCNC(=O)c2ccc(CS(=O)(=O)Cc3ccc(C)cc3)o2)cc1OC | inconclusive [inhibitor, single point] | 

Row | Compound | Potency | activity change, negative = growth inhibition
25 | COC(=O)c1ccc(N2CCN(C)CC2)c(NC(=O)COc2cccc(C)c2)c1 | inactive | 
26 | Cc1ccnc(NC(=S)NC(=O)/C=C/c2ccccc2)c1 | inconclusive [inhibitor, single point] | 
27 | Cc1ccc2c(c1)N(CCCC(=O)Nc1cccc(C(F)(F)F)c1)C(=O)CO2 | inconclusive [inhibitor, single point] | 
28 | COc1cccc(CNC(=O)C2CCN(S(=O)(=O)c3ccc4c(c3)CCCN4C(C)=O)CC2)c1 | inconclusive [inhibitor, single point] | 
29 | CC(=O)c1cccc(NS(=O)(=O)c2ccc(N/C=C\C(=O)c3ccc(F)cc3)cc2)c1 | active: 13 µM | 
30 | CSCCOC(=O)c1[nH]c2c(c1C)C(=O)CC(c1ccco1)C2 (stereo not drawn) | active: 0.731 µM | 
31 | CN(CC(=O)Nc1ccccc1)CC(=O)Nc1ccccc1Cl | inactive | 
32 | O=C(Nc1nncs1)C1c2ccccc2Oc2ccccc21 | inconclusive [inhibitor, single point] | 
33 | O=C(CNCc1ccc(Cl)cc1)Nc1cc(S(=O)(=O)N2CCCC2)ccc1Cl | active: 20.6 µM | 
34 | CCCCN1C(=O)c2ccc(C(=O)OCC(=O)N3CCN(c4ccccc4)CC3)cc2C1=O | inactive | 
35 | ONC(=Nc1ccc(Cl)cc1)c1ccccc1Cl | inactive | 
36 | CCOC(=O)C1=CCN(S(=O)(=O)c2ccccc2F)C1c1cccc(Cl)c1 (stereo not drawn) | inconclusive [inhibitor, single point] | 
37 | COc1ccccc1NS(=O)(=O)c1ccc(NN=C2CCCC2)c([N+](=O)[O-])c1 | active: 18.4 µM | 
38 | O=S(=O)(c1ccccc1)N(CC1CO1)c1cccc2ccccc12 (stereo not drawn) | active: 20.6 µM | 
39 | OCc1ccccc1SSc1ccccc1CO | active: 2.31 µM | 
40 | Cn1nccc1-c1coc2c(C(=O)NCC3CCOCC3)cccc12 | inconclusive [inhibitor, partial curve, poor fit] | 
41 | CCN(Cc1nc2cc(Cl)ccc2c(=O)[nH]1)C(=O)COc1ccccc1Cc1ccccc1 | inconclusive [inhibitor, single point] | 
42 | Cc1ccc(-c2csc(N3CCC[C@@H]3C(=O)NCCn3c(-c4ccncc4)nc4ccccc43)n2)cc1 | inconclusive [inhibitor, single point] | 
43 | C[C@H](CO)N1C[C@H](C)[C@H](CN(C)Cc2cncnc2)Oc2cc(Br)ccc2S1(=O)=O | inconclusive [inhibitor, partial curve, poor fit] | 
44 | COCCNC(=O)C1Cc2c(-c3cccc(NC(C)=O)c3)ccnc2O1 (stereo not drawn) | inconclusive [inhibitor, single point] | 
45 | O=C(O)c1ccccc1CSc1nnc2c(n1)[nH]c1ccccc12 | inactive | 
46 | O=C(NCCc1c[nH]c2ccccc12)C(=O)NCC(c1ccco1)N1CCN(c2ccccc2)CC1 (stereo not drawn) | inconclusive [inhibitor, single point] | 
47 | CCC1(CC)Cc2ccccc2-c2nc(CN(C)C)[nH]c(=O)c21 | inconclusive [inhibitor, single point] | 
48 | C[C@@H]1CN=C2N(CCNC(=O)CCC3CCCCC3)[C@H](Cc3ccc(O)cc3)CN21 | active: 13 µM | 
